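Exposure lasted 48 hours, with cells grown in 96-well plates and compounds tested at five concentrations. At the GI50, growth is halved. TGI marks complete inhibition of growth.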

The results in this text go back to PubChem BioAssay (NCI).

The subject of the assay is NCI-H322M lung. Put plainly: inhibition of tumour cell growth, NCI panel, 48 h.

Regarding `COc1cc2ccccc2c2cc([N+](=O)[O-])oc12`, the TGI came out at 7.78 µM. For `O=S(=O)(C(=Ic1ccccc1)S(=O)(=O)C(F)(F)C(F)(F)C(F)(F)C(F)(F)F)C(F)(F)C(F)(F)C(F)(F)C(F)(F)F`, the TGI worked out at 33.7 µM.

As for `NCCC(=O)N[C@H](Cc1cc(O)c(O)c(SCC(NC(=O)CC[C@H](N)C(=O)O)C(=O)NCC(=O)O)c1)C(=O)O` (some centres undefined), the TGI was more than 50 µM. Regarding `Cc1ccc(NC(=O)CC/C(CC(=O)C(C)(C)C)=N/NC(=O)C(N)=O)cc1C`, the TGI was more than 100 µM. Compound `C=CCC1C(=O)C(C(=O)OC)N2CCc3c([nH]c4ccccc34)C12` (centres undefined) registered a TGI of more than 100 µM. `O=C1CSC(/C=C/c2ccccc2)N1c1ccc(-c2ccc(-n3c(-c4ccccc4)nc4ccccc4c3=O)cc2)cc1` (centres undefined) yielded a TGI of more than 100 µM. As for `COc1ccc(Cl)cc1Nc1nc(C(F)(F)F)ccc1C(=O)N/N=C/c1ccc([N+](=O)[O-])cc1`, the GI50 was 1.02 µM and the TGI was 4.26 µM. Regarding `O=C(Cn1c(=O)c(-c2ccccc2)nc2ccccc21)c1ccc(Cl)cc1`, the GI50 was 53.2 µM and the TGI was more than 100 µM.

Compound `CC1CC(C)[C@H](O)C([C@H](O)CC2CC(=O)N(C)C(=O)C2)C1` (some centres undefined) displayed a TGI of more than 100 µM. For the compound `COc1ccc(CN2C(=O)C(Cc3cc(OC)c(OC)c(C)c3OC)NC(=O)/C2=C/c2cc(OC)c(OC)c(C)c2OC)cc1` (centres undefined), the TGI was more than 100 µM.

`Cc1cc(=O)n(-c2ccccc2)c(=O)o1` showed a TGI of more than 100 µM. For `CCCCSN1C(=O)c2ccccc2C1=S`, the TGI was more than 100 µM. On the same count and under the same terms, with `O=C1c2cccc3cccc(c23)C(=O)N1CCCNCCCCNCCCN1C(=O)c2cccc3cccc(c23)C1=O` the figure was 1.75 µM; with `O=C(C/C(=N\NC(=O)C[n+]1ccccc1)C(=O)Nc1nc2ccc([N+](=O)[O-])cc2s1)CC(c1ccccc1)c1c(O)c2ccccc2oc1=O` (centres undefined), more than 100 µM; with `CN1CCC(CNC(=O)CCCCCCCCC(=O)NCC2(c3ccccc3)CCN(C)CC2)(c2ccccc2)CC1`, more than 100 µM.

Take `FC(F)(F)c1nc2ccc(SSc3ccc4nc(C(F)(F)F)[nH]c4c3)cc2[nH]1`: the GI50 was more than 100 µM and the TGI is more than 100 µM. For the compound `COc1ccc(C(C#N)NC23CC4CC(CC(C4)C2)C3)cc1OC` (centres undefined), the TGI was more than 100 µM. With `NC(=O)C(c1ccccc1)N1OC2C(=O)N(Cc3ccccc3)C(=O)C2C1c1cccc(Oc2ccc(Cl)cc2)c1` (centres undefined), the TGI is more than 100 µM. The same measure, in the same setting: with `O=C1c2cccc3cc([N+](=O)[O-])cc(c23)C(=O)N1NC1=NCCN1` the figure was more than 100 µM. Regarding `Cc1csc(/C=N/NC(=O)c2nnn(-c3ccnc4c(C(F)(F)F)cccc34)c2C)c1`, the GI50 was 32.8 µM and the TGI is more than 100 µM. For the compound `CCSc1c(C)c2c(n(Cc3ccc(OC)cc3)c1=O)Cc1ccccc1C2`, the TGI is 85.7 µM. `COc1cccc(C(=O)Nc2ccc(CN3CCc4nc5cc(OC)c(OC)cc5cc43)cc2)c1`: the GI50 was 10.4 µM and the TGI was more than 100 µM. The compound `N#CCCN(CCC#N)C(=O)c1cccc(C(=O)N(CCC#N)CCC#N)c1` displayed a TGI of more than 100 µM. Same read-out and setting: with `CC(C)(C)OC(=O)NC1CC=CCC1NC(=O)OC(C)(C)C` (centres undefined) the figure was more than 100 µM. Turning to `CN(C)c1ccc(-c2ccc(-c3ccc(C(=N)N)c(F)c3)s2)cc1`, the GI50 is 1.37 µM and the TGI was 2.73 µM. The matching figures for `O=C(CCCn1c(=O)c2sc3ccccc3c2n2nnc(-c3ccccc3)c12)NCCc1cnc[nH]1`: 2.25 µM and 5.54 µM. Taken in the same sequence, the figures for `C=C1C(=O)O[C@H]2[C@H]1CC/C(Cn1cc(CNCCc3c[nH]c4ccc(Cl)cc34)nn1)=C\CC[C@@]1(C)O[C@@H]21` were 23.6 µM and 98.5 µM. Compound `COc1cc([N+](=O)[O-])c(S(=O)(=O)O)cc1NS(=O)(=O)c1ccc(C)cc1` showed a TGI of more than 100 µM. `CSc1c(C#N)c(O)n(-c2ccc(C)cc2)c(=O)c1C#N` returned a TGI of more than 100 µM. For the compound `Nc1nc(Cl)c(N)c(NCC2(CO)CC(Cc3ccccc3)C2)n1` (centres undefined), the TGI is more than 100 µM. Consider `O=C(/C=C/c1ccccc1)c1c[nH]c2ccccc2c1=O`, for which the GI50 is 3.57 µM and the TGI was determined as 13.4 µM. Take `Cn1cc(C2=C(c3c4n(c5ccccc35)CCCC4)C(=O)NC2=O)c2ccccc21`: the GI50 is more than 19.4 µM and the TGI is more than 25 µM.

The compound `O=C1c2ccccc2NC(c2cc(Cl)cc(Cl)c2O)N1CCc1ccccn1` (centres undefined) returned a TGI of more than 100 µM. `CCN(CC)CCNc1ccc2ncn3c4c(OC)ccc(OC)c4c(=O)c1c23` showed a TGI of 26.3 µM. The same measure, in the same setting: the same measure for `C=C1CC(Cn2ccc(=O)[nH]c2=O)(c2ccc(-c3ccccc3)cc2)OC1=O` (centres undefined): 26 µM; for `CC1(C)C(c2ccccc2)=NN(O)c2ccccc21`: more than 100 µM. As to `Cc1c(C)c2c(c(C)c1NC(=O)/C=C\C(=O)O)CCC(C)(CCCC(C)CCCC(C)CCCC(C)C)O2` (centres undefined), the GI50 is 1.96 µM and the TGI amounted to 4.41 µM. Compound `COc1ccc(/C(CCl)=C(\Nc2ccccc2)c2ccc(OC)c(OC)c2)cc1OC` registered a TGI of more than 100 µM.
